Earlier results on two compounds are cited in paper PMC4351876 (Cancer prevention research (Philadelphia, Pa.), 2013).

One data set relates to colorectal polyps. The conditions noted are these: patients with familial adenomatous polyposis; cited from earlier work.
Data set [1] has as its system oral premalignant lesions. The following applies: single agent celecoxib, after 12 weeks; cited from earlier work.
The conditions of data set [2]: cited from earlier work.

In the case of `Cc1ccc(-c2cc(C(F)(F)F)nn2-c2ccc(S(N)(=O)=O)cc2)cc1` [celecoxib], the “reduction in the number of colorectal polyps” value in the data set with colorectal polyps is 28%. In data set [1], the “biopsies showing improvement in the degree of dysplasia” value is listed as 12 out of 18.
As for `C#Cc1cccc(Nc2ncnc3cc(OCCOC)c(OCCOC)cc23)c1` [erlotinib], the “average CL/F” value in data set [2] (previous phase 2 trials, 150mg QD) was ~3.95 L/h. Besides, the “average V/F” value in data set [2] (previous studies, cancer patients, average body weight ∼69 kg) is ~220 L. The “elimination half-life (t1/2)” value in data set [2] (previously reported) was > 24 h. Further, the t1/2 in data set [2] (study with cancer patients) was ~37.5 h.
